Among all 150,000 compounds or so, about 540 (0.36%) showed an effect of 50% or more. This is one part of the list.

This assay concerns Plasmodium falciparum. In words: Primary screen in NF54 nanoGlo assay, in single point, at 2uM, 72h; a lower Z score goes with more inhibition. It counts as functional, Erythrocyte. As to conditions: timepoint 72 hour.
One may read the % Inhibition as the relative decrease from the control value, in per cent. For the compound `COCc1nc(C)cc(N(CCC#N)CC2CCC2)n1`, the “% Inhibition” value is recorded as -3% and the Z score stood at 0.49.
In the same order, the values of `CC[C@@](C)(CNC(=O)c1ccc(-c2cnco2)cc1)NC(=O)c1ccc(-c2cnco2)cc1` are -7% and 1.15.
The like results for `CC(C)(C)n1cc(Nc2nc3ccccc3o2)cn1` were, in that order, -7% and 1.31.
In the same order, the values of `COc1ccc(-c2cc(C)no2)cc1S(=O)(=O)N1CCC[C@H](CN2CCc3ccccc3C2)C1` are -12% and 2.05.
Consider `Cc1ccc(NCCCN[C@H]2CCN(c3ccc(F)cc3)C2)nc1`, for which the “% Inhibition” value came to 0% and the Z score is given as 0.04.
The like results for `NC(=O)c1cc(N2CC[C@H](OCCN3CCCCC3)C2)ccn1` were, in that order, 5% and -1.1.
`Cc1ccnc(Nc2nc(C)c(C(=O)N3CCC(C(N)=O)(N4CCCCC4)CC3)s2)c1`: the “% Inhibition” value was determined as 2% and the Z score is reported as -0.39.
The like results for `OC[C@H](Cc1c[nH]c2ccccc12)NCc1ccc(N2CCCC2)nc1` were, in that order, 8% and -1.18.
In the same order, the values of `CCOc1ccc2nc(CNCc3ccc4[nH]c(=O)[nH]c4c3)ccc2c1` are 16% and -2.74.
Take `Cc1ccccc1C(NC(C)c1ccc(=O)[nH]n1)C1CCCC(C)C1` (stereo unspecified): the “% Inhibition” value is given as -1% and the Z score is listed as 0.12.
In the same order, the values of `Fc1ccc(-c2nn(CC3OCCO3)cc2Br)cc1` are 12% and -2.16.
The like results for `COc1ccc(OCCN2CCN([C@@H](C)C(=O)c3c(C)[nH]c4ccccc34)CC2)cc1` were, in that order, 7% and -1.47.
The like results for `C#CCN(C)S(=O)(=O)c1cnc(N2CCCC2)c(C(F)(F)F)c1` were, in that order, 4% and -0.77.
Regarding `COc1cncc(C(=O)N(C)[C@H]2CCN(C3CCN(C)CC3)C2)n1`, the “% Inhibition” value is on record as -7% and the Z score is 1.1.
Turning to `c1cc(-c2ccnc(NCC3(N4CCOCC4)CCCCC3)n2)ccn1`, the “% Inhibition” value was -7% and the Z score was found to be 1.21.
The like results for `CCN(C)CCNc1cc(C)nc(C)n1` were, in that order, 37% and -8.
`C[C@H](NCc1ccccc1-c1ccc(CN(C)C)cc1)C(=O)Nc1ccc(Cl)cn1`: the “% Inhibition” value is -5% and the Z score worked out at 0.77.
In the same order, the values of `O=C(C[C@H]1CCOC1)NCC1(CN2CCCC2)CC1` are 6% and -1.2.
On to `c1cnc(-c2ccnc(N[C@H]3CCCN(CCN4CCOCC4)C3)n2)cn1`, for which the “% Inhibition” value is listed as -8% and the Z score is on record as 1.63.
In the same order, the values of `Cc1nc2c(NC(=O)N(C)[C@@H](C)c3ccc4c(c3)OCCO4)cccn2n1` are -6% and 1.07.
With `O=C(NCCc1ccc(F)cc1)[C@H]1CCCN(c2cc(-n3ccc4ccccc43)ncn2)C1`, the “% Inhibition” value was -2% and the Z score was determined as 0.39.
The like results for `Cc1ccc2c(c1)c1ccccc1n2Cc1ccc(N(C)C)cc1` were, in that order, 0% and 0.03.
`COc1ccccc1C(=O)CNC(=O)c1ccnc2ccccc12`: the “% Inhibition” value is reported as -3% and the Z score was 0.49.
For the compound `c1ccc(-c2cc(CN3CCC(Oc4cnccn4)CC3)no2)cc1`, the “% Inhibition” value was -10% and the Z score was 1.84.
Regarding `CC(C)c1noc([C@@]23CCC[C@@H]2CN(CCN2CCCOCC2)C3)n1`, the “% Inhibition” value is 4% and the Z score is on record as -0.55.
In the same order, the values of `O=C(NCCNc1cccnc1)c1cccc(-c2cn[nH]c2)c1` are -16% and 2.7.
The like results for `CC1(C)CN(c2ncnc3c2ncn3CC2(CO)COC2)CCN1CCO` were, in that order, -6% and 0.98.
In the same order, the values of `CC(C)Nc1ncc(C(=O)N[C@H]2CCCN(CC3CCCCC3)C2)cn1` are -5% and 0.94.
Regarding `COc1ccccc1-c1cc(CNc2cc(C(C)C)nc3ccnn23)on1`, the “% Inhibition” value came out at 2% and the Z score is -0.39.
On to `CN(C(=O)OC(C)(C)C)[C@H](CNc1ncnc2c1cnn2C)Cc1ccccc1`, for which the “% Inhibition” value was determined as 4% and the Z score is given as -0.77.
The like results for `COc1ccc(C2NCC(c3ccc(N(C)C)cc3)c3c2[nH]c2ccccc32)cc1` (stereo unspecified) were, in that order, -8% and 1.3.
In the same order, the values of `O=C(c1cc2c(OC(F)(F)F)cccc2[nH]1)N1CC[C@H](CN2CCOCC2)C1` are -17% and 3.56.
In the same order, the values of `CCc1ccc(-c2c(C)n[nH]c2COC)cc1` are -7% and 1.16.
`O=C(c1cc(-c2ccccc2O)[nH]n1)N1CCC(Nc2ncccn2)C(O)C1` (stereo unspecified): the “% Inhibition” value was -1% and the Z score stood at 0.11.
In the same order, the values of `CN(C)Cc1noc2ccc(NC(=O)Cc3c[nH]c4ccccc34)cc12` are -4% and 0.75.
The like results for `CCc1nc2cc(-c3ccc(O)c(OC(F)(F)F)c3)cnc2[nH]1` were, in that order, -8% and 1.56.
Take `C[C@H](NCc1cccc(-c2cnn(C)c2)c1)C1CCC(F)(F)CC1`: the “% Inhibition” value was determined as 12% and the Z score is listed as -1.8.
In the same order, the values of `Cc1ccc(C)c([C@H](C)NC(=O)CN2CCC(N3CCN(CCO)CC3)CC2)c1` are 0% and 0.06.
The like results for `CCN1CCN(C2CCN(C(=O)c3ccc(-c4ccsc4)nc3N3CCC[C@H](CO)C3)CC2)CC1` were, in that order, -18% and 3.21.
In the same order, the values of `Oc1cccc2ccc(CNc3cccc(Cl)c3)nc12` are -12% and 2.13.
Regarding `O=c1c2ccccc2[nH]c2ccc(OS(=O)(=O)c3ccc(F)c(Cl)c3)cc12`, the “% Inhibition” value is reported as -22% and the Z score is 3.39.
The like results for `COc1ccc(-c2ccnc(C3CCN(c4ccnc(C#N)n4)CC3)n2)cc1` were, in that order, -1% and 0.14.
With `OC[C@H]1CCCCN1CCNCc1ccc(CN2CCCCC2)s1`, the “% Inhibition” value was -4% and the Z score was found to be 0.76.
In the same order, the values of `CCNc1cc(C)nc(NCCNC(=O)Nc2cc(F)cc(F)c2)n1` are 79% and -17.07.
The like results for `Cc1c(-c2cnn(C)c2)nc(N)c(C#N)c1-c1c[nH]c2ccccc12` were, in that order, 5% and -0.86.
The like results for `COc1ccc(CN(Cc2cccnc2)C(=O)NCC(C)(C)C)c(OC)c1` were, in that order, -2% and 0.31.
Consider `NCC[C@H]1CN(C(=O)c2cccc(-c3nc4ccccc4[nH]3)c2)CCO1`, for which the “% Inhibition” value is -12% and the Z score amounted to 2.08.
The like results for `CC1Oc2ccccc2OC1C(=O)N(CCn1cccn1)c1nc2c(C(F)(F)F)cccc2s1` (stereo unspecified) were, in that order, 5% and -0.74.
Regarding `Cc1ccc(OC(F)F)c(CNC(=O)Cc2c[nH]c3ncccc23)c1`, the “% Inhibition” value came out at 1% and the Z score was -0.21.
The like results for `CC(C)C(=O)N1CCC(Nc2nc(-c3cccnc3)nc3c2cnn3C)CC1` were, in that order, -1% and 0.13.
The like results for `COc1ccccc1[C@@H]1CCCN1CCCN1CCN(C(C)C)CC1` were, in that order, -3% and 0.57.
In the same order, the values of `CCN(C)c1ccc(-c2c(-c3ccccc3)ncn2CCCNC)cc1` are 9% and -1.71.
Consider `CC[C@@H](c1cnn(C)c1)n1cnc(-c2ccccc2)c1-c1cnc(OC)nc1`, for which the “% Inhibition” value was found to be 3% and the Z score is given as -0.47.
The like results for `O=C1COc2cc(-c3nc(COc4ccccc4)nn3CCO)ccc2N1` were, in that order, -7% and 1.12.
In the same order, the values of `COc1ccc(-c2cc(C(=O)Nc3ccc(N4CCN5CCCC5C4)cc3)c3c(C)noc3n2)cc1` (stereo unspecified) are 27% and -4.67.
In the same order, the values of `COc1ccc2sc(Nc3cccc(C)c3C)nc2c1` are -4% and 0.57.
Consider `COc1ccc2nc(C)cc(C(=O)N[C@H](c3ccccc3)C3CC3)c2c1`, for which the “% Inhibition” value is -9% and the Z score stood at 1.65.
The like results for `CCc1cc(CN2CC(O)C(Cc3ccnc4ccccc34)C2)on1` (stereo unspecified) were, in that order, 2% and -0.4.
For `CC[C@H](O)CN1CCC(NC(=O)c2noc(-c3cccnc3)n2)CC1`, the “% Inhibition” value is 22% and the Z score was -3.8.
In the same order, the values of `O=C(c1cc(-c2ccc3c(c2)OCO3)n[nH]1)N1CCC(Oc2ccc(Cl)cn2)CC1` are -16% and 2.85.
As to `CN(CC(F)(F)F)C(=O)COc1ccc2ncccc2c1`, the “% Inhibition” value is recorded as -8% and the Z score came out at 1.82.
In the same order, the values of `Fc1ccccc1CN1CCC(CNC2CCN3CCCC3C2)CC1` (stereo unspecified) are 14% and -2.92.
The like results for `O=C(CNC1(c2ncccn2)CCOCC1)Nc1cccc(Cl)c1` were, in that order, 3% and -0.41.
In the same order, the values of `O=C(c1ccnc(OCC2CCOCC2)c1)N1CCC(Oc2cnccn2)CC1` are 0% and 0.03.
Turning to `O=C(NCc1ccc([C@@H](O)c2cccs2)s1)c1nc2ccccc2s1`, the “% Inhibition” value was -7% and the Z score was 1.26.
The like results for `c1ccc(CN2CCC(NCCCc3nc4ccccc4[nH]3)CC2)nc1` were, in that order, 0% and 0.06.
On to `COC(=O)CCN(C(=O)c1ccc(C)nc1C)c1ccccc1C`, for which the “% Inhibition” value turned out to be 2% and the Z score is -0.43.
In the same order, the values of `C[C@H]1C(=O)NCCN1S(=O)(=O)Cc1ccccc1C(F)(F)F` are 6% and -0.97.
The like results for `Cc1cc(F)ccc1NC(=O)CCNc1nccc(N2CCC[C@H](O)C2)n1` were, in that order, -14% and 2.92.
As for `c1ccc2nc(NCc3n[nH]c4ncccc34)cnc2c1`, the “% Inhibition” value is -10% and the Z score worked out at 1.5.
The like results for `COC(=O)CN(CCN1CCOCC1)Cc1ccc2cnccc2c1` were, in that order, 1% and -0.15.
The like results for `c1ccc(CCCN2CCCN(Cc3cnc4cnccn34)CC2)cc1` were, in that order, 3% and -0.53.
In the same order, the values of `CN(CCNC(=O)c1cccc(-c2ncc[nH]2)c1)CCc1ccccc1` are -7% and 1.06.
`CC1CCN(C[C@H]2CCCN(Cc3noc(-c4cccc(Cl)c4)n3)C2)CC1`: the “% Inhibition” value amounted to 2% and the Z score is -0.37.
With `COc1ccc2[nH]c(CNc3cc(N4CCC(O)CC4)ncn3)cc2c1`, the “% Inhibition” value turned out to be 2% and the Z score is -0.34.
As to `CCN(CCOc1ccccc1Cl)C(=O)NCc1n[nH]c(N)n1`, the “% Inhibition” value turned out to be 4% and the Z score is -0.74.
The like results for `O=C(NCC1CCN(CCc2ccc(F)cc2)CC1)c1cnc(N2CCCCC2)c2ccccc12` were, in that order, -5% and 0.93.
The like results for `O=C(CN1CCC(c2ccccc2)CC1)N1CCC2NCCCC2(CO)C1` (stereo unspecified) were, in that order, -2% and 0.42.
For the compound `CN(C)CCCN1CC2(CCC1=O)CCN(Cc1ccc3[nH]ccc3c1)CC2`, the “% Inhibition” value is reported as -9% and the Z score was 1.54.
For the compound `Cc1nc2ccc(CNC3CCN(c4ccc(F)c(F)c4)CC3)cc2[nH]1`, the “% Inhibition” value turned out to be 25% and the Z score was -4.47.
The like results for `CN1CCC(N2CCN(Cc3c(Cl)ccc(O)c3Cl)CC2)CC1` were, in that order, -11% and 1.6.
The like results for `Cn1ncc2c(N)nc(N3CC4CCC3CN(Cc3ccccc3)C4)nc21` (stereo unspecified) were, in that order, -3% and 0.51.
In the case of `Cc1ccc(OC2CCN(c3nc(N)c4cnn(C)c4n3)CC2)nc1`, the “% Inhibition” value is listed as -5% and the Z score is 0.89.

For the origin of these results see ChEMBL document CHEMBL5308541, “MAIP: An Open-Source Tool to Enrich High-Throughput Screening Output and Identify Novel, Druglike Molecules with Antimalarial Activity” (ACS Med Chem Lett, 2023).
